Laboratory results as given in PubChem BioAssay AID1768 (National Center for Advancing Translational Sciences (NCATS), 2009).
In all, about 270,000 compounds went through this assay and about 620 (0.23%) were called active. The shares of active, inactive and inconclusive entries below differ from those in the screen. The call rests on the fitted dose curve; in most records, active means well fitted inhibition curve with a large enough effect in the polarisation, with a control signal flat (not every such curve was filed as active); inconclusive means small, poorly fitted or top-dose-only effect, or effect the other way, or a change in a side signal; inactive means no such curve, though single readings can be large or run the other way; the % refers to the polarisation. Potencies beside an inconclusive call are fits to weak or partial responses and may not hold up. A note “side channel” means that the fit belongs to a control or component signal, not to the main read-out.

The compounds below were run against Menin (Homo sapiens) (UniProt O00255) (assay: qHTS Assay for Inhibitors Targeting the Menin-MLL Interaction in MLL Related Leukemias: Competition With Texas Red Labeled MLL-derived Mutant Peptide). Details: fluorescence polarization; series mostly up to 61.6 µM.
UniProt O00255, sequence (O00255 whole entry, looked up): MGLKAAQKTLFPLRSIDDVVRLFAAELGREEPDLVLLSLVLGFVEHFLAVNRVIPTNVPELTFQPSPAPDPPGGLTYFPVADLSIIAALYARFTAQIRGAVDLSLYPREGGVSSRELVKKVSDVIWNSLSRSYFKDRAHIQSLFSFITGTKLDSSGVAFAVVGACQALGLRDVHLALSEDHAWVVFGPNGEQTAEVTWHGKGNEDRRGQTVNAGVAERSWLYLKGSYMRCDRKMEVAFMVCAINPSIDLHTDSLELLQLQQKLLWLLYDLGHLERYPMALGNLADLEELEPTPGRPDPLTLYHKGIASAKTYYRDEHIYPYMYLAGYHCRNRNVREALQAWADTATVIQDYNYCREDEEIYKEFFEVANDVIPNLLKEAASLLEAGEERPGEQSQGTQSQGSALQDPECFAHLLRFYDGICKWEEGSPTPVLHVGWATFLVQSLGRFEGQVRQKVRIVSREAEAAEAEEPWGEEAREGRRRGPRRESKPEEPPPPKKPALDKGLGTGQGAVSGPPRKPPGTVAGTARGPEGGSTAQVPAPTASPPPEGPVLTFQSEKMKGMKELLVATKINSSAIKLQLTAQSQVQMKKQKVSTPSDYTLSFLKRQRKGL
Potency means the concentration at half of the fitted maximal effect; tags describe the fitted curve by direction and shape or compound fluorescence and quenching.

Potency, inconclusive:
COc1ccc(NC2CCCN(C(=O)CCc3ccncc3)C2)cc1OC (centres undefined) 3.55 µM [inhibitor, full curve, poor fit], O=C(NC(=S)Nc1ccc(N2CCCC2)cc1)c1ccccc1[N+](=O)[O-] 25.1 µM [quencher, side channel, partial curve], COc1cc(C2C(C(=O)c3ccc(C)o3)=C(O)C(=O)N2CCN2CCOCC2)ccc1OCCC(C)C (centres undefined) 39.8 µM [inhibitor, single point], CC(=O)N1CCN(c2c(F)c(F)c(C(F)(F)F)c(F)c2F)CC1 4.47 µM [fluorescent, side channel, full curve], Cc1c(N=Cc2c(O)n(C)c(=O)c3ccccc23)c(=O)n(-c2ccccc2)n1C 17.8 µM [inhibitor, single point], Cc1cc2nc(-c3ccc(SCc4ccc(C#N)cc4)nc3)[nH]c2cc1C 28.2 µM [inhibitor, single point], O=C(Nc1ccc(Cl)c([N+](=O)[O-])c1)C(Sc1ccccc1)c1ccccc1 (centres undefined) 3.98 µM [quencher, side channel, full curve], COC(=O)c1sccc1NC(=O)Nc1cc(C)ccc1OC 31.6 µM [quencher, single point], COc1cc(C)nc(N2CCCC(C(=O)Nc3ccccc3Br)C2)n1 (centres undefined) 12.6 µM [fluorescent, side channel, partial curve], CCOC(=O)c1sc(NC(=O)c2ccc(Br)o2)cc1C 11.2 µM [quencher, side channel, partial curve], O=C(C1=C[C@H](C2CC2)C[C@H](OCCCCO)O1)N1CCN(Cc2ccccc2)CC1 20 µM [fluorescent, partial curve], COc1ccc(C2=NN(C(=O)CSC3=NN4CCCC(=O)N=C4S3)C(c3cccc(OC)c3OC)C2)cc1 (centres undefined) 0.891 µM [inhibitor, full curve, poor fit], Cc1cc(C)cc(NC(=O)CN2CCC(NC(=O)c3ccccc3F)CC2)c1 10 µM [fluorescent, side channel, partial curve], COc1ccc(NC(=O)CN(c2ccc([N+](=O)[O-])cc2)S(=O)(=O)c2ccccc2)cc1 3.16 µM [inhibitor, single point], CCOc1ccc(/C=C2/SC(=S)N(C(C(=O)O)c3ccccc3)C2=O)cc1OCC (centres undefined) 14.1 µM [quencher, side channel, partial curve], CC(=O)Nc1ccc(S(=O)(=O)Oc2ccc(/C=N/NC(=O)c3ccc(Cl)cc3)cc2)cc1 1.78 µM [quencher, side channel, full curve, poor fit], COc1ccc(-c2nnc3ccc(SC)nn23)cc1 12.6 µM [inhibitor, partial curve], O=C(Nc1ccc(Cl)cc1)c1ccc2c(c1)OCO2 39.8 µM [inhibitor, single point], Cc1cccc(NC(=O)CN2CCc3cc4c(cc3C2C)OCCCO4)c1 (centres undefined) 6.31 µM [inhibitor, partial curve, poor fit], CCOC(=O)c1ccc(NC(=O)Cn2nnc(-c3ccccc3)n2)cc1 31.6 µM [inhibitor, single point], Cc1ccccc1N(CC(=O)NCc1ccc2c(c1)OCO2)C(=O)C1CSC(=O)C1 (centres undefined) 20 µM [inhibitor, single point], CS(=O)(=O)N1CCc2cc(S(=O)(=O)Nc3ccc4oc5c(c4c3)CCCC5)ccc21 25.1 µM [inhibitor, single point], O=C1S/C(=C\c2ccc(O)c([N+](=O)[O-])c2)C(=O)N1c1ccccc1Cl 12.6 µM [quencher, side channel, partial curve], Cc1ccc2nc(C)c(CN3CCN(c4ccc([N+](=O)[O-])cc4Cl)CC3)n2c1 20 µM [inhibitor, partial curve], COCCn1c(N)c(NCc2ccccc2)c(=O)n(CC(=O)Nc2cc(C)ccc2C)c1=O 7.08 µM [fluorescent, side channel, single point], C(=N\NC1=Nc2cccc3cccc1c23)/c1cccnc1 12.6 µM [quencher, side channel, partial curve], COc1ccc(NC(=S)NNC(=O)CNc2ccc(Cl)cc2)cc1 25.1 µM [quencher, side channel, partial curve], CC(=O)N1CCN(S(=O)(=O)c2ccc(S(=O)(=O)NC3CCCCC3)cc2)CC1 3.55 µM [quencher, side channel, single point], CN(Cc1ccon1)Cc1cn(C)nc1-c1cccc(Cl)c1 35.5 µM [inhibitor, partial curve, poor fit], O=C(Nc1nccs1)c1cc2c(s1)CCCCC2 28.2 µM [quencher, side channel, partial curve], CCCCn1c(=O)[nH]c(=O)c2c1nc(-c1ccc(-c3ccccc3Br)o1)n2CC 3.98 µM [inhibitor, full curve, poor fit], CC(C)(C)C1CCC(C(=O)OCC(=O)Nc2ccc3[nH]c(=O)[nH]c3c2)CC1 (centres undefined) 17.8 µM [quencher, side channel, partial curve], O=C(Nc1ccc2c(c1)oc1ccc(S(=O)(=O)N3CCCC3)cc12)C1CC1 25.1 µM [quencher, side channel, partial curve], COC(=O)c1ccc(/C=N/NC(=O)C2CC(=O)N(c3ccc(OC)cc3)C2)cc1 (centres undefined) 31.6 µM [fluorescent, side channel, single point], CCOC(=O)N1CCC(n2c(SCC(=O)OCc3ccccc3)nc3ccsc3c2=O)CC1 7.08 µM [fluorescent, side channel, full curve], COc1ccc(/C=C2\Oc3cc(OCC(=O)N4CC(O)C[C@H]4C(=O)O)ccc3C2=O)cc1OC (some centres undefined) 14.1 µM [quencher, side channel, partial curve], NC(=O)c1ccc(NC(=O)C2COc3ccccc3O2)cc1 (centres undefined) 10 µM [inhibitor, partial curve], CCCCn1nnnc1NCc1ccc(N(CC)CC)cc1 0.708 µM [inhibitor, full curve], CCC(=O)c1cn(CC(=O)Nc2ccc(C)cc2)c2ccccc12 20 µM [inhibitor, single point], COc1ccc(C(=O)Nc2ccc(S(=O)(=O)N3CCCCC3)cc2)cc1 17.8 µM [quencher, side channel, partial curve], CSc1c(CC(=O)Nc2ccccc2)n(Cc2ccccc2)c2ccccc12 12.6 µM [quencher, side channel, partial curve], Cc1ccc(NC(=O)CSc2nn(-c3ccccc3)c(=S)s2)cc1S(=O)(=O)N(C)C 3.16 µM [quencher, side channel, full curve], C/C(CC1CC(COCC(C)C)OC1=O)=N\Nc1nc(-c2ccccc2)cs1 (centres undefined) 12.6 µM [quencher, side channel, partial curve], CCCN(CC1CC1)c1nc(C)nc(Nc2c(Cl)cc(Cl)cc2Cl)c1Cl 12.6 µM [inhibitor, partial curve], O=C(Nc1ccc(-c2cn3c(n2)SCC3)cc1)c1ccc2ccccc2n1 12.6 µM [quencher, side channel, partial curve], CN(CCOc1ccccc1)C(=O)c1ccc(N2CCCC2)c([N+](=O)[O-])c1 44.7 µM [inhibitor, single point], CCOc1cc(/C=C(\C#N)C(N)=O)ccc1OS(=O)(=O)c1ccccc1 12.6 µM [quencher, side channel, partial curve]

Potency, inactive:
O=C(O)CSc1nnc(CNc2ccc(Cl)cc2)n1Cc1ccccc1, CCOC(=O)C(=O)c1c(-c2ccc(C)cc2)nc2ccccn12, C[C@]12CCC(=O)C=C1CC[C@@H]1[C@@H]2[C@@H](O)C[C@@]2(C)[C@H]1CC[C@]2(O)C(=O)COP(=O)(O)O, CC1(C)O[C@@H]2C[C@H]3[C@@H]4CCC5=CC(=O)C=C[C@]5(C)[C@H]4C(O)C[C@]3(C)[C@]2(C(=O)CO)O1 (some centres undefined), Cn1c(C(=O)NCCC2=CCCCC2)cc2c(=O)n3ccccc3nc21, Nc1c2c(nc3ccc(Br)cc13)N(C1CCCCC1)CC2, CCc1nc2ccc(C(=O)NCCc3ccc(OC)c(OC)c3)cc2nc1CC, Cc1c(C#N)c(N)nc2c3c(sc12)NC(=O)CC3c1ccc(Cl)cc1 (centres undefined), O=C(NCCCn1ccnc1)c1ccc(-c2ccccc2)cc1, Cc1nc(NCCC(C)C)c2nnn(Cc3ccccc3)c2n1, FC(F)(F)c1cnc(NNC(=S)Nc2ccccc2Cl)c(Cl)c1

Potency, active:
COc1ccc(C(=O)Nc2ccc(NC(=O)c3cccs3)cc2)cc1Cl 7.08 µM
